# Data taken from the supplement of paper PMC10126150.
# Values marked as one replicate rest on one cluster of the flow cell; about a third of the high ones do not repeat.
# System: ATP
# Assay: switch fluorescence ratio, 500 uM ATP over buffer (Cy3 cluster intensity, sum of 5 cycles each) (fold (ratio)); higher = stronger signal-on switching upon ATP binding; sequences stand for … in TCGTCGGCAGCGTCAGATGTGTATAAGAGACAGTTTTTTTTTTTTTTTTTTTTTTTTT…TC
# Details: aptamer strand: ATP DNA aptamer (quencher-CACCTGGGGGAGTATTGCGGAGGAAGG + anchor), 100 nM annealed; ATP concentration: 500 uM; one replicate
# Procedure, shortened: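 Five buffer/ATP imaging cycles were run on Cy3-labelled switching-strand clusters on a modified Illumina MiSeq flow-cell, with NaOH stripping and re-annealing between cycles. In each cycle, clusters annealed to 100 nM quencher-labelled ATP aptamer were imaged in selection buffer, then after 15 min with 500 uM ATP at 22 °C. Per cluster, the fluorescence ratio is summed target-cycle over summed buffer-cycle Cy3 intensity, averaged per switch-domain sequence. Only clusters within 100-1000 RFU were kept.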
# 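Note: ATP exposure 15 min at 22 °C before imaging.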
row,Sequence,switch fluorescence ratio
1,GATGCACAGG,1.43
2,GATGCCCCTC,1.02
3,GATGCCGACC,1.05
4,GATGCCGGAG,0.949
5,GATGCCGTGC,1.01
6,GATGCGCTCT,0.967
7,GATGCGTTTC,1.04
8,GATGCTATTG,1.03
9,GATGCTCTTT,0.995
10,GATGCTTGTC,1.02
11,GATGCTTTAA,0.935
12,GATGGACGGG,1.03
13,GATGGAGGG,0.939
14,GATGGATCG,0.959
15,GATGGATTG,1.06
16,GATGGCAAAC,3.39
17,GATGGGGTAC,1.05
18,GATGGTACAC,1.02
19,GATGGTACAG,1.02
20,GATGGTCAG,0.969
21,GATGGTGTAC,1.08
22,GATGTACCCT,1.1
23,GATGTATTTG,1.01
24,GATGTCATTC,0.977
25,GATGTGCCGT,1.07

row,Sequence,switch fluorescence ratio
1,GATGTGTCAG,0.973
2,GATGTTGCAA,1.03
3,GATGTTTGAT,0.972
4,GATGTTTTTA,1.03
5,GATTAAACCA,1.05
6,GATTAAGTTA,0.992
7,GATTAGGCTT,0.978
8,GATTATTG,1.03
9,GATTATTGAG,0.963
10,GATTCACGCT,1
11,GATTCATTTC,0.976
12,GATTCGACAT,1.04
13,GATTCGCTTG,1.04
14,GATTCGGGAC,0.993
15,GATTCTATAT,0.996
16,GATTCTGAGT,0.985
17,GATTGACAAC,0.977
18,GATTGACCTT,1.15
19,GATTGACTTT,1.08
20,GATTGAGCGA,1.01
21,GATTGATTCA,0.941
22,GATTGCACAT,1.04
23,GATTGGGAAA,0.934
24,GATTGGTTGG,0.987
25,GATTGTAAGG,0.989

row,Sequence,switch fluorescence ratio
1,GATTGTGAGC,1.03
2,GATTGTGGGT,1.03
3,GATTTAAAT,1.12
4,GATTTAAATT,1
5,GATTTAATGT,0.976
6,GATTTAGCAT,1.04
7,GATTTAGCCT,1.06
8,GATTTCCTCA,1.06
9,GATTTCTGGT,0.983
10,GATTTGATAT,0.998
11,GATTTGTAAC,1.02
12,GATTTTATGC,1.1
13,GATTTTGATG,1.03
14,GATTTTTTA,0.981
15,GCAAACCGG,1.04
16,GCAAACGTCG,0.988
17,GCAAAGAGTG,0.964
18,GCAAAGGCAC,1.03
19,GCAAATACTG,1.6
20,GCAAATTTGT,0.983
21,GCAACCACCT,1.18
22,GCAACCCGCT,1.11
23,GCAACGAATT,0.994
24,GCAACGACC,1.99
25,GCAACGGCAC,1.38

row,Sequence,switch fluorescence ratio
1,GCAACTGAAC,1.13
2,GCAACTGATA,0.99
3,GCAACTGGAA,1.06
4,GCAAGAGGCG,1.01
5,GCAAGATGTA,0.999
6,GCAAGCGAGT,1.08
7,GCAAGGACTG,1.03
8,GCAAGGGAAG,1.01
9,GCAAGGTAAT,1.01
10,GCAAGTCAGT,1.03
11,GCAATAAGTC,1.54
12,GCAATACAAG,3.75
13,GCAATAGAGT,1.13
14,GCAATATAAG,1.12
15,GCAATATTTA,1.25
16,GCAATCCAC,2.92
17,GCAATCCGTC,1.11
18,GCAATCGTTA,1.11
19,GCAATGAAGG,1.1
20,GCAATGCCGT,1.03
21,GCAATGGGGA,1.13
22,GCAATGTTAA,1.05
23,GCAATTAGTT,1.54
24,GCAATTTCTA,1.07
25,GCACAGAGGA,1.11
